Measured values as given in article PMC10691697, “A small molecule exerts selective antiviral activity by targeting the human cytomegalovirus nuclear egress complex” (PLOS Pathogens, 2023).

Tests used:
[1] = system: HFF cells; test: in vitro; type: cell-based, human; details: for cytotoxicity on HFF: WST-1 absorbance relative to DMSO vehicle: replicates
Procedure: (§1) Cytotoxicities of various compounds were determined using a WST-1 assay that measures metabolic activity (Roche), and CC50’s were calculated as described previously.

[2] = in vitro; type: cell-based, human; details: human, read-out: CC50, cytotoxicity on HFF
Procedure: as §1

[3] = target: T1, HCMV NEC (His-UL50, Myc-UL53) (Human cytomegalovirus, UniProt P16794); test: co-immunoprecipitation assay of His-UL50 and Myc-UL53; type: binding; details: 10 or 20 μM GK1; 0.3 μM NEC
T1 construct: GST (N, cleaved yes); 13-residue glycine-serine linker […]; made in house; host or cells: E. coli BL21 (DE3) RIPL
Procedure: 0.3 μM purified HCMV NEC in 50 mM Hepes (pH 7.5) and 200 mM NaCl were incubated with DMSO or with 10 μM or 20 μM GK1 at RT for 30 min followed by incubation at 4°C overnight. For immunoprecipitation of His-UL50, each sample was incubated with 25 μL Dynabeads His-Tag magnetic beads (Invitrogen) on a roller for 10 min at RT, followed by four washes and then elution from the beads using the manufacturer’s guidance. For immunoprecipitation of Myc-UL53, each sample was incubated with 50 μL Pierce anti-c-Myc magnetic beads (ThermoFisher Scientific) on a roller for 30 min at RT. Then the beads were washed three times and the proteins were eluted from the beads with 50 μL 0.5mg/mL Pierce c-Myc peptide (ThermoFisher Scientific) following the manufacturer’s guidance. To test the binding specificity of the beads, 0.3 μM purified HCMV His-UL50 alone or HCMV Myc-UL53 alone was incubated with His-tag magnetic beads or Myc-tag magnetic beads, and the corresponding immunoprecipitation was performed with the same protocols described above. Aliquots of the input samples (2.5% of what was incubated with each type of magnetic beads) as well as proteins eluted from the beads (20% of each eluate) were subjected to SDS-PAGE, followed by Western blot analysis using a mouse anti-His antibody (1:1,000, Invitrogen) and a mouse anti-Myc antibody (1:1,000, Invitrogen).

[4] = target: T2, UL50_C35N+UL53 (Human cytomegalovirus, UniProt P16794); test: biochemical; type: binding; details: replicates, read-out: normalized FRET signal relative to control without inhibitor
T2 construct: GST (N, cleaved yes); 13-residue glycine-serine linker […]; made in house; host or cells: E. coli BL21 (DE3) RIPL

[5] = system: co-localization of UL53 with UL50 at the nuclear rim; type: cell-based; details: 10 μM, WT-infected cells, MOI 1, 72 hpi
[6] = target: T3, HCMV UL50-UL53 (Human cytomegalovirus, UniProt P16794); test: biochemical; type: binding; details: for HTRF ratio for NEC + GK1: A665nm/A620nm * 10000; for HTRF ratio for NEC + GK1 / Fluorescence at 620 nm for NEC + GK1: replicates; for Fluorescence at 620 nm for NEC + GK1, Mean / HTRF ratio for NEC + GK1, Mean: triplicate
T3 construct: GST (N, cleaved yes); 13-residue glycine-serine linker […]; made in house; host or cells: E. coli BL21 (DE3) RIPL

With `C=CC(=O)Nc1cccc(Oc2cc(Cl)nc3[nH]ccc23)c1` [GK1] the “cytotoxicity on HFF: WST-1 absorbance relative to DMSO vehicle” value ([1]; 0.20 μM compound, 6 days) was 100.0000 (2×) and 95.0000, the “cytotoxicity on HFF: WST-1 absorbance relative to DMSO vehicle” value ([1]; 0.40 μM compound, 2 days) was 108.0000 and 100.0000 (2×) and the “cytotoxicity on HFF: WST-1 absorbance relative to DMSO vehicle” value ([1]; 0.40 μM compound, 6 days) was 100.0000 (2×) and 94.0000. For the same compound, the “cytotoxicity on HFF: WST-1 absorbance relative to DMSO vehicle” value ([1]; 0.80 μM compound, 2 days) was 105.0000 and 95.0000 and 100.0000, the “cytotoxicity on HFF: WST-1 absorbance relative to DMSO vehicle” value ([1]; 0.80 μM compound, 6 days) was 100.0000 and the “cytotoxicity on HFF: WST-1 absorbance relative to DMSO vehicle” value ([1]; 1.60 μM compound, 2 days) was 110.0000 and 97.0000 and 102.0000. For the same compound, the “cytotoxicity on HFF: WST-1 absorbance relative to DMSO vehicle” value ([1]; 1.60 μM compound, 6 days) was 100.0000 (2×) and 90.0000, the “cytotoxicity on HFF: WST-1 absorbance relative to DMSO vehicle” value ([1]; 50.00 μM compound, 2 days) was 33.0000 and 41.0000 and 45.0000 and the CC50 ([1]; WST-1, six days, in parallel with automated plaque reduction assay, read-out: CC50, cytotoxicity on HFF) was 20 µM. The CC50 ([2]; WST-1, six days, in parallel with automated plaque reduction assay) was 22 µM, the CC50 ([2]; WST-1, two days, in parallel with HSV-1 plaque reduction assay) was 40 µM and the “co-immunoprecipitation of His-UL50 by anti-Myc antibody” value [3] was “decreased co-immunoprecipitation of His-UL50”. For the same compound, the “decrease of co-immunoprecipitation of Myc-UL53 by anti-His antibody” value [3] was over 2 fold, the remaining activity at 3.13 µM ([4]; 3.13 μM compound) was 93% and the remaining activity at 6.25 µM ([4]; 6.25 μM compound) was 85%. The “subset of cells with substantial nucleoplasmic UL53 staining” value [5] was ~ 20%, the “reduction of NEC subunit interactions in the HTRF assay” value ([6]; 10 μM) was ~ 2.5 fold and the “HTRF ratio for NEC + GK1” value ([6]; 0.5 microM) was 58415 and 58982 and 60956. For the same compound, the “Fluorescence at 620 nm for NEC + GK1” value ([6]; 0.5 microM) was 5180 and 5578 and 5503, the “Fluorescence at 620 nm for NEC + GK1, Mean” value (“Fluorescence at 620 nm … Mean” below) ([6]; 0.5 microM) was 5420 and the “HTRF ratio for NEC + GK1, Mean” value ([6]; 0.5 microM) was 59451. For the same compound, the “HTRF ratio for NEC + GK1” value ([6]; 0.71 microM) was 54407 and 56455 and 57112, the “Fluorescence at 620 nm for NEC + GK1” value ([6]; 0.71 microM) was 5106 and 5267 and 5304 and the “Fluorescence at 620 nm … Mean” value ([6]; 0.71 microM) was 5226. The “HTRF ratio for NEC + GK1, Mean” value ([6]; 0.71 microM) was 55991, the “HTRF ratio for NEC + GK1” value ([6]; 1.01 microM) was 49650 and 53513 and 52181 and the “Fluorescence at 620 nm for NEC + GK1” value ([6]; 1.01 microM) was 5540 and 5383 and 5502. For the same compound, the “Fluorescence at 620 nm … Mean” value ([6]; 1.01 microM) was 5475, the “HTRF ratio for NEC + GK1, Mean” value ([6]; 1.01 microM) was 51781 and the “HTRF ratio for NEC + GK1” value ([6]; 1.43 microM) was 46887 and 48106 and 49089. For the same compound, the “Fluorescence at 620 nm for NEC + GK1” value ([6]; 1.43 microM) was 5391 and 5518 and 5431, the “Fluorescence at 620 nm … Mean” value ([6]; 1.43 microM) was 5447 and the “HTRF ratio for NEC + GK1, Mean” value ([6]; 1.43 microM) was 48027. The “HTRF ratio for NEC + GK1” value ([6]; 2.04 microM) was 41126 and 43851 and 42494, the “Fluorescence at 620 nm for NEC + GK1” value ([6]; 2.04 microM) was 5615 and 5622 and 5909 and the “Fluorescence at 620 nm … Mean” value ([6]; 2.04 microM) was 5715. The “HTRF ratio for NEC + GK1, Mean” value ([6]; 2.04 microM) was 42490, the “HTRF ratio for NEC + GK1” value ([6]; 2.91 microM) was 40217 and 39971 and 38664 and the “Fluorescence at 620 nm for NEC + GK1” value ([6]; 2.91 microM) was 5392 and 5476 and 5585. The “Fluorescence at 620 nm … Mean” value ([6]; 2.91 microM) was 5484, the “HTRF ratio for NEC + GK1, Mean” value ([6]; 2.91 microM) was 39617 and the “HTRF ratio for NEC + GK1” value ([6]; 4.15 microM) was 31483 and 33868 and 33831. The “Fluorescence at 620 nm for NEC + GK1” value ([6]; 4.15 microM) was 5975 and 5753 and 5944 and the “Fluorescence at 620 nm … Mean” value ([6]; 4.15 microM) was 5891.

Values joined by “and” are separate entries in the source; they are usually repeats but may differ in a detail not shown here. Identical values can stand only once. Like-named read-outs stand apart in the source and are kept apart here.
